About 21,000 targets were measured; listed, in parts, are those with the largest changes and a random draw of the rest.
Compound: Cc1cc(ccc1-c1ccccc1)C(=O)N1CCCN(CC1)C(=O)CCl [compound 10]
Assay: probe-labelled cysteine peptide fold change vs DMSO (competition) (log2 fold change); higher = less target engagement (more negative = stronger competition)
Details: 50 µM; THP-1; incubation time: 4 h
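Note: competitive profiling in live THP-1 cells: cysteine peptides tagged with an iodoacetamide desthiobiotin (IA-DTB) probe, intensity after compound treatment relative to DMSO-treated cells.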

Chain of UniProt Q8N163 (Q8N163 whole entry, looked up): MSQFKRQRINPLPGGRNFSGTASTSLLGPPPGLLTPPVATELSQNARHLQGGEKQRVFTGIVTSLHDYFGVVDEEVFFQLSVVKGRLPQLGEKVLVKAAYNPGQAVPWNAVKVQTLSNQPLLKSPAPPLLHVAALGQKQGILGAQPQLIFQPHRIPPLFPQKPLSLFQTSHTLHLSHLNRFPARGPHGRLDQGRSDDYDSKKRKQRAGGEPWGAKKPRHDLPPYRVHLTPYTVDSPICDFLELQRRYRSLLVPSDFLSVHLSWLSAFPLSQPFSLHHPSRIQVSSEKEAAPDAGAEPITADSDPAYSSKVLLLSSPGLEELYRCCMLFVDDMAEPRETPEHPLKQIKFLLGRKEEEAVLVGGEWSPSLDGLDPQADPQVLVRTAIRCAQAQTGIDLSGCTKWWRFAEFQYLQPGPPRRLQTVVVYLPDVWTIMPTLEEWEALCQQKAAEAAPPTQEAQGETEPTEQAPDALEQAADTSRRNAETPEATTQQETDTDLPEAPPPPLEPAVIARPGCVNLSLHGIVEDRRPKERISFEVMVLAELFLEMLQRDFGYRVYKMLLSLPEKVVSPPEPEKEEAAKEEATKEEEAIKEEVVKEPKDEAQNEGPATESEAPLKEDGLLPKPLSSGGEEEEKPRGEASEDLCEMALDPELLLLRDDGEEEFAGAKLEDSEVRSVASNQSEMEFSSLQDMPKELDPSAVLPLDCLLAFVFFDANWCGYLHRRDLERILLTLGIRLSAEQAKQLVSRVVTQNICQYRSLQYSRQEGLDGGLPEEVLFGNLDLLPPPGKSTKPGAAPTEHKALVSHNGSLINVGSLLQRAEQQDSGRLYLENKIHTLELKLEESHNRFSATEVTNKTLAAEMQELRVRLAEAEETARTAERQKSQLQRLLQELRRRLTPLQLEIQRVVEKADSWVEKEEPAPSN
Chain of UniProt Q14008 (Q14008 whole entry, looked up): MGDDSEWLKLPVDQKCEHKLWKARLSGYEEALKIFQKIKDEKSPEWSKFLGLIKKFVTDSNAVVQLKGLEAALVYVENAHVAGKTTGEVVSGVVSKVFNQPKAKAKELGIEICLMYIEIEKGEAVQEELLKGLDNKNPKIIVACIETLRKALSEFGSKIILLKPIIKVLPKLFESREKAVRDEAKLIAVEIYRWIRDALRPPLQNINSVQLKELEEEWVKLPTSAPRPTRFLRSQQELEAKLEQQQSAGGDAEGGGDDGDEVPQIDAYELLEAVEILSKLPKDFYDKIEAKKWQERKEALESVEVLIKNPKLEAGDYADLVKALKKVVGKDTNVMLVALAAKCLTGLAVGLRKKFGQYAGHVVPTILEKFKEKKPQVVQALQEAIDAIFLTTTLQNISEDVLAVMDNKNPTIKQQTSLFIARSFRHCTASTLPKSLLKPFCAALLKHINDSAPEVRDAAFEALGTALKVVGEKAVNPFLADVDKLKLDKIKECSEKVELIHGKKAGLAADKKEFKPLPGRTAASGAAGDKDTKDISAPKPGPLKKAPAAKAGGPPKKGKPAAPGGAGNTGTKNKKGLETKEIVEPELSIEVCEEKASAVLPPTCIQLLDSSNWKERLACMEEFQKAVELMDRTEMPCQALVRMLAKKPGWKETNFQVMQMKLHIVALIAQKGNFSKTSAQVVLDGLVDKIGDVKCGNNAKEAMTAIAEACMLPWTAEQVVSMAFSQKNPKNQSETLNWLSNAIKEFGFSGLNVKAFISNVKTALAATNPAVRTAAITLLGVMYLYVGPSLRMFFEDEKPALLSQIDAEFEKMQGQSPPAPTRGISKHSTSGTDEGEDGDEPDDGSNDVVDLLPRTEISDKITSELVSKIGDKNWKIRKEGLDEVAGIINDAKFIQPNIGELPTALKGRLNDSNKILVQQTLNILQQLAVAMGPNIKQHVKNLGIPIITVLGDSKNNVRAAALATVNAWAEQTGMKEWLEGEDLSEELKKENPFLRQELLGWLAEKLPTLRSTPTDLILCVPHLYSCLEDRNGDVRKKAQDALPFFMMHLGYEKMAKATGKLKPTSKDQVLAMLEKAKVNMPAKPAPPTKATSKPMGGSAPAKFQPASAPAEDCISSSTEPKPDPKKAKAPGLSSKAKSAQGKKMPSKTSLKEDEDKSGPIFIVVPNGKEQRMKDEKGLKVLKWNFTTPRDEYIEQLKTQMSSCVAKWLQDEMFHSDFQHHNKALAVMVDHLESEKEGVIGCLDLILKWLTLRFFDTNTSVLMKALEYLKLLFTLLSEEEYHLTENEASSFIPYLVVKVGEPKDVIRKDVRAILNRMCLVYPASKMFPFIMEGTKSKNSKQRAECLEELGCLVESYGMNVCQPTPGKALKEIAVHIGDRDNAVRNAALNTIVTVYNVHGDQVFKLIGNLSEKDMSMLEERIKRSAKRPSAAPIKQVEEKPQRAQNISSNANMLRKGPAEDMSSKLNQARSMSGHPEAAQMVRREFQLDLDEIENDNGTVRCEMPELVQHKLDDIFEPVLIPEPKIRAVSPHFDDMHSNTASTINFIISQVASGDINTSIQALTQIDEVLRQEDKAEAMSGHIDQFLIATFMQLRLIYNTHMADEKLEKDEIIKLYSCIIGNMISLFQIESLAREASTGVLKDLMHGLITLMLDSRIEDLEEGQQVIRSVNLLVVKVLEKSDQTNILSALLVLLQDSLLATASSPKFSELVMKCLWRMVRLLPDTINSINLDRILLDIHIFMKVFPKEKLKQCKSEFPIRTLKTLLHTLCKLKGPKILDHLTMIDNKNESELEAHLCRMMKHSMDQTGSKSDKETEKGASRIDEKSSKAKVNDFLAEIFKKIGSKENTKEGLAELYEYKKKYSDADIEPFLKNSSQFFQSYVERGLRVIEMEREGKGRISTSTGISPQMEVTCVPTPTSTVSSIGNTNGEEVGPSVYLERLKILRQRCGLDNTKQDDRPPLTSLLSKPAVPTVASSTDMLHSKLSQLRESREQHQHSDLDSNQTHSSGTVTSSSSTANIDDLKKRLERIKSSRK
Chain of UniProt O95067 (O95067 whole entry, looked up): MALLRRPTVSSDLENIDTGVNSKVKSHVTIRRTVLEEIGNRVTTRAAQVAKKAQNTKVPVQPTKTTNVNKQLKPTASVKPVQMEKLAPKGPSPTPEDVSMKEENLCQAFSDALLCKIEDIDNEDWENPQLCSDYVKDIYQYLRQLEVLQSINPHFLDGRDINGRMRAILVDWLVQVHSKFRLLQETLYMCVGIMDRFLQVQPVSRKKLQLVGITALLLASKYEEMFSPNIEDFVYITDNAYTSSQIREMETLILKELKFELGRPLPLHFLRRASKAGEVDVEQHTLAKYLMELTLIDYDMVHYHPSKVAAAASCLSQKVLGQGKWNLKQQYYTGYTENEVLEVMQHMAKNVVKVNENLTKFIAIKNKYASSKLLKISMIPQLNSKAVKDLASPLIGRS
Chain of UniProt Q9HB09 (Q9HB09 whole entry): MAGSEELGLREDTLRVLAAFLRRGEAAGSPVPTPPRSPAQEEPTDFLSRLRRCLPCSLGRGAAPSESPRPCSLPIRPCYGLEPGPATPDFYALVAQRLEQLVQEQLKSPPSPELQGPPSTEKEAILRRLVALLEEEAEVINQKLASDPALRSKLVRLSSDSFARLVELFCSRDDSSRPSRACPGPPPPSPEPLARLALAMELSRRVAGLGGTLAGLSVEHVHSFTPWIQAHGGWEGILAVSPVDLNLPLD
Chain of UniProt O76031 (O76031 whole entry, looked up): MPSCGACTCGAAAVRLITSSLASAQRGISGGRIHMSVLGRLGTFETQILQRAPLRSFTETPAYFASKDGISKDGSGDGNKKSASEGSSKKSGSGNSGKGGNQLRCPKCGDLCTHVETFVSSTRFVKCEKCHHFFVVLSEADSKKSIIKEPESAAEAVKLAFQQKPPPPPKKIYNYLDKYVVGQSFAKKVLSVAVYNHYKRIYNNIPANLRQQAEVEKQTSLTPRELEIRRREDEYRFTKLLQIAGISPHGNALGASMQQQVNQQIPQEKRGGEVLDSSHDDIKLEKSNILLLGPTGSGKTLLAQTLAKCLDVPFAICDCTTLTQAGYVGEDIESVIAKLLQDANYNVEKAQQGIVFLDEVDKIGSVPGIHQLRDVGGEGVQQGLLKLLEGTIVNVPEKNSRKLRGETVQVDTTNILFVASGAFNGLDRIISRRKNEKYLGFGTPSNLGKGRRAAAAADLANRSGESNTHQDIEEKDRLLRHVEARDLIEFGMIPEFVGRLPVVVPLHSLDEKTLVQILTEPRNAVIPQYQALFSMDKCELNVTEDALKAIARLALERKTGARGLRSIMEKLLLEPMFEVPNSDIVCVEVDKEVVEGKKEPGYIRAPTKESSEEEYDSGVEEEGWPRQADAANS
Chain of UniProt Q9Y6K0 (Q9Y6K0 whole entry, looked up): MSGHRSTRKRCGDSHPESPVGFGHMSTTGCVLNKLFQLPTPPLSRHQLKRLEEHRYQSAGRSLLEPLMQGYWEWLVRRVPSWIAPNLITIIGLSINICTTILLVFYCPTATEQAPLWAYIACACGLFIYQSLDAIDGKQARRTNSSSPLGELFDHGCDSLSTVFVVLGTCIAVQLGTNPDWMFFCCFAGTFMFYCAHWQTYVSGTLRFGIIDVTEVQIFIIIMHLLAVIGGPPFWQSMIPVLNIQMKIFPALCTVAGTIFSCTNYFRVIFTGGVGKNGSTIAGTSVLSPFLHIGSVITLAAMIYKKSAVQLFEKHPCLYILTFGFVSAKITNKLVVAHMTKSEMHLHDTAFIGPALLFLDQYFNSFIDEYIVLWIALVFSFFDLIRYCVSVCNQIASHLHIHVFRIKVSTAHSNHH
Chain of UniProt P45973 (P45973 whole entry, looked up): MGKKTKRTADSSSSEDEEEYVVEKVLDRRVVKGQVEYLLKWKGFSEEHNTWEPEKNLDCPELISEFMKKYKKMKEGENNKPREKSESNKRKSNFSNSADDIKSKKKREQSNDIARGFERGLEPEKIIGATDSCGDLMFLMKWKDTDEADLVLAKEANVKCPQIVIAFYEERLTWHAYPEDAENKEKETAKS
Chain of UniProt Q8WUH1 (Q8WUH1 whole entry, looked up): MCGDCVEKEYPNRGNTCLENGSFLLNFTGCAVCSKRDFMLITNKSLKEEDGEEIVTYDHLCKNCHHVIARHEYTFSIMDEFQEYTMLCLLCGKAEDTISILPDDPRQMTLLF

Target	probe-labelled cysteine peptide fold change
BIRC6_Q9NR09_1319_CAMLQFSEFHEK (UniProt Q9NR09)	-0.189
CKAP5_Q14008_637_AVELMDRTEMPCQALVR (UniProt Q14008)	-0.426
CAD_P27708_1215_VIECNVR (UniProt P27708)	0.123
BLMH_Q13867_269_ICLVNDPRPQHK (UniProt Q13867)	0.0884
CCT7_Q99832_158_CAMTALSSK (UniProt Q99832)	-0.00995
CLPB_Q9H078_572_INEIVYFLPFCHSELIQLVNK (UniProt Q9H078)	0.035
CISD3_P0C7P0_71_KQPFCDGSHFFQR (UniProt P0C7P0)	-0.265
CBX5_P45973_59_NLDCPELISEFMK (UniProt P45973)	0.0939
CAD_P27708_484_NERPDGVLLTFGGQTALNCGVELTK (UniProt P27708)	0.138
CLPX_O76031_538_CELNVTEDALK (UniProt O76031)	-0.0926
BCLAF1_Q9NYF8_688_CDSADLRHDIDR (UniProt Q9NYF8)	-1.75
BIRC6_Q9NR09_3673_RHHVPQQCNK (UniProt Q9NR09)	-1.8
BCL2L12_Q9HB09_266_ACPGPPPPSPEPLAR (UniProt Q9HB09)	-1.65
CASP7_P55210_70_CIIINNK (UniProt P55210)	-0.241
CEP290_O15078_998_TSNLEHLECENISLK (UniProt O15078)	0.118
CARS_P49589_506_ALCDNVDTR (UniProt P49589)	-0.0518

Target	probe-labelled cysteine peptide fold change
CAND1_Q86VP6_1007_NCIGDFLK (UniProt Q86VP6)	-0.151
CEP131_Q9UPN4_648_CEAVVAELK (UniProt Q9UPN4)	-0.274
CHURC1_Q8WUH1_91_NCHHVIAR (UniProt Q8WUH1)	-0.0139
CASP8_Q14790_309+312+313_IYQLMDHSNMDCFICCILSHGDK (UniProt Q14790)	-1.31
BST1_Q10588_144_VADFLSWCR (UniProt Q10588)	0.155
CCNB2_O95067_131_IEDIDNEDWENPQLCSDYVK (UniProt O95067)	-0.00128
BPNT1_O95861_243_ASAYVFASPGCK (UniProt O95861)	0.0815
CCAR2_Q8N163_644_GEASEDLCEMALDPELLLLRDDGEEEFAGAK (UniProt Q8N163)	0.202
CCDC82_Q8N4S0_422+424_NPENCSCQACGLHR (UniProt Q8N4S0)	0.0324
CCNE2_O96020_109_NLFINPSPLPDLSWGCSK (UniProt O96020)	-1.56
CLIC4_Q9Y696_189_KFLDGNEMTLADCNLLPK (UniProt Q9Y696)	-0.583
BRAP_Q7Z569_110_ECINAAPDSPSK (UniProt Q7Z569)	-0.673
CC2D1B_Q5T0F9_86_LAADCMR (UniProt Q5T0F9)	-0.411
CEPT1_Q9Y6K0_11_CGDSHPESPVGFGHMSTTGCVLNK (UniProt Q9Y6K0)	-2.15
BAZ1B_Q9UIG0_338_LWCHVHLK (UniProt Q9UIG0)	-0.443
BMP2K_Q9NSY1_912_VNVQECHAVGPEAHTIPGYPK (UniProt Q9NSY1)	-0.223

From the supplement of paper PMC12067093, “Discovery and optimisation of a covalent ligand for TRIM25 and its application to targeted protein ubiquitination” (Chemical Science, 2025)
